Data as given in the supplement of paper PMC3334620.
In all, about 33,000 sequences were measured (“E-score (-0.5 to 0.5)”: median about -0.011, highest 2% from about 0.28 on). The list shows a part of the results.

Target: T1, Gcr1 (UniProt P07261)
T1 sequence: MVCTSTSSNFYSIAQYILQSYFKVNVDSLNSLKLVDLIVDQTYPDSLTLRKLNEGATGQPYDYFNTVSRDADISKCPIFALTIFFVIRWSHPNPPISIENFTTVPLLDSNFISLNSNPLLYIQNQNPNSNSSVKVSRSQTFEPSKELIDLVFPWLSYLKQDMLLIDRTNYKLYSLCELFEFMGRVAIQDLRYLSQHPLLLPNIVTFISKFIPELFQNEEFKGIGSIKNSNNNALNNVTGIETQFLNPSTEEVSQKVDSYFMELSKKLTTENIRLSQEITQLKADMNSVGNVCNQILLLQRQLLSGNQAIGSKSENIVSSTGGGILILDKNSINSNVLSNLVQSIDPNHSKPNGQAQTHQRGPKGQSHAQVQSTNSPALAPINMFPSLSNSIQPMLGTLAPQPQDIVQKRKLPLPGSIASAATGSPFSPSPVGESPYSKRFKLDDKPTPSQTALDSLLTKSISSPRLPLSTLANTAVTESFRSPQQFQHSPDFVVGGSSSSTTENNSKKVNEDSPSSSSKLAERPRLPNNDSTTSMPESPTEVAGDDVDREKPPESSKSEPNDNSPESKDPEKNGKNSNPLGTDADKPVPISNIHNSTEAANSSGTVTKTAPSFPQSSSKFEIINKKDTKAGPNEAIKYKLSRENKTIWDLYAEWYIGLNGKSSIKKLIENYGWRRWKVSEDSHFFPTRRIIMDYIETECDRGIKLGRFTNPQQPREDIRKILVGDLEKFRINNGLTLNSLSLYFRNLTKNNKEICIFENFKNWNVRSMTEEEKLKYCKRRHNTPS
Test: PBM E-score (8-mer binding enrichment) (E-score (-0.5 to 0.5)); higher = stronger / more preferred TF binding; most listed sequences are background and not binding sites
Conditions: protein concentration: 100 nM; construct: GST-full length
Experimental: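 Universal 'all 10-mer' protein binding microarrays (Agilent AMADID 015681) probed with GST-tagged S. cerevisiae TFs (full-length or DBD) made by in vitro transcription/translation (PURExpress), about 100-200 nM. Bound TF was detected with fluorescent anti-GST. Each ungapped 8-mer (which stands for itself and its reverse complement) is scored by the PBM enrichment score (E-score), a modified Wilcoxon-Mann-Whitney statistic from -0.5 to +0.5, computed with the Universal PBM Analysis Suite. Scale: above 0.35 generally sequence-specific binding.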

For AATCCGAC, which “PBM E-score” value is on record?
The value was -0.0961.

For GGTGGCCA, which “PBM E-score” value is on record?
Its value is -0.0439.

With GAAAGATA as the sequence, how does the “PBM E-score” value read?
The value was 0.0822.

How did the “PBM E-score” value turn out when ACAATGGA was run?
The value was 0.114.

How did the “PBM E-score” value turn out when ACGCTTCC was run?
Its value is 0.313.

CGCTCCGA was tested. Which “PBM E-score” value did it give?
The value was -0.0796.

With ACCCCCCA as the sequence, how does the “PBM E-score” value read?
Its value is -0.262.

CGACTGAA was tested. Which “PBM E-score” value did it give?
Its value is 0.123.

How did the “PBM E-score” value turn out when CTGTACTC was run?
The value was 0.0724.

With GACTAAAC as the sequence, how does the “PBM E-score” value read?
The value was -0.0931.

TCTATACA was tested. Which “PBM E-score” value did it give?
The value was 0.0121.

With CAAGCGTG as the sequence, how does the “PBM E-score” value read?
Its value is -0.246.

Which “PBM E-score” value does the source give for ATCCAGGC here?
The value was 0.105.

CTCTAGCC was tested. Which “PBM E-score” value did it give?
The value was -0.0711.

CCGAAGAC was tested. Which “PBM E-score” value did it give?
The value was -0.0175.

For CGCGTTGA, which “PBM E-score” value is on record?
Its value is 0.0422.

CTGTCGTA was tested. Which “PBM E-score” value did it give?
Its value is -0.167.

With GCCCTCAA as the sequence, how does the “PBM E-score” value read?
The value was -0.0439.

How did the “PBM E-score” value turn out when ACCGGAGA was run?
The value was -0.0699.

With GGTCCCTA as the sequence, how does the “PBM E-score” value read?
Its value is 0.147.

With CGATATAC as the sequence, how does the “PBM E-score” value read?
Its value is 0.065.

For AACCCGAG, which “PBM E-score” value is on record?
The value was -0.0239.

Which “PBM E-score” value does the source give for CGTAGAGA here?
The value was -0.153.

How did the “PBM E-score” value turn out when CTCGCCGC was run?
The value was -0.156.

CTTCTCAA was tested. Which “PBM E-score” value did it give?
The value was 0.122.

For CACTGCGA, which “PBM E-score” value is on record?
The value was -0.0736.

For ACGTGCTA, which “PBM E-score” value is on record?
Its value is -0.151.

With ATCCACGC as the sequence, how does the “PBM E-score” value read?
Its value is -0.00091.

GTTTTACA was tested. Which “PBM E-score” value did it give?
The value was 0.0334.

CTCTATTC was tested. Which “PBM E-score” value did it give?
Its value is 0.0878.

How did the “PBM E-score” value turn out when GTAATGAC was run?
Its value is -0.0576.

GTAGGTTA was tested. Which “PBM E-score” value did it give?
Its value is 0.0377.

For GTCTAAGA, which “PBM E-score” value is on record?
Its value is -0.0474.

With GGCGGAGA as the sequence, how does the “PBM E-score” value read?
The value was 0.108.

GCATCGGC was tested. Which “PBM E-score” value did it give?
Its value is -0.181.

How did the “PBM E-score” value turn out when CAATTCGC was run?
Its value is -0.067.

With ACCTTTAT as the sequence, how does the “PBM E-score” value read?
The value was -0.0342.

With CTGGGTTC as the sequence, how does the “PBM E-score” value read?
Its value is 0.263.

For AGGAGACA, which “PBM E-score” value is on record?
The value was -0.027.

GTAAGAGA was tested. Which “PBM E-score” value did it give?
The value was -0.0339.

With GCGTACCC as the sequence, how does the “PBM E-score” value read?
Its value is -0.114.

How did the “PBM E-score” value turn out when AAGTAGCG was run?
Its value is 0.0898.

Which “PBM E-score” value does the source give for CGGTCAAG here?
The value was -0.162.

With ACTGTAAC as the sequence, how does the “PBM E-score” value read?
Its value is -0.08.

With CAGTTGAA as the sequence, how does the “PBM E-score” value read?
Its value is 0.0333.

How did the “PBM E-score” value turn out when ACGCATCA was run?
Its value is 0.13.

Which “PBM E-score” value does the source give for GAACCAGA here?
The value was 0.158.

GGCCCCGA was tested. Which “PBM E-score” value did it give?
Its value is -0.0513.

For CAAGTTCC, which “PBM E-score” value is on record?
Its value is 0.233.

AGATAGAG was tested. Which “PBM E-score” value did it give?
The value was 0.00308.

For ACGTGGTG, which “PBM E-score” value is on record?
The value was -0.0699.

With GGGGGTCA as the sequence, how does the “PBM E-score” value read?
The value was -0.287.

For TGTTTGAA, which “PBM E-score” value is on record?
The value was 0.24.

For AGAATTCG, which “PBM E-score” value is on record?
The value was 0.117.

How did the “PBM E-score” value turn out when CGGGTGCC was run?
Its value is 0.377.

With ATGGCACC as the sequence, how does the “PBM E-score” value read?
The value was 0.201.

AGTTTTAC was tested. Which “PBM E-score” value did it give?
Its value is -0.0167.

With CGCGTTGC as the sequence, how does the “PBM E-score” value read?
The value was -0.0294.

For CTTGACCA, which “PBM E-score” value is on record?
The value was -0.0951.

Which “PBM E-score” value does the source give for AGGATGCG here?
The value was 0.21.

With GTTCCGTA as the sequence, how does the “PBM E-score” value read?
Its value is 0.00192.

ACTAGAAG was tested. Which “PBM E-score” value did it give?
Its value is 0.259.

Which “PBM E-score” value does the source give for AACATGCG here?
The value was 0.0448.

How did the “PBM E-score” value turn out when CCTAACGA was run?
Its value is -0.102.

With AAAAAGAT as the sequence, how does the “PBM E-score” value read?
The value was 0.0952.

With CTCCCCGC as the sequence, how does the “PBM E-score” value read?
Its value is 0.196.

AGGAAGTA was tested. Which “PBM E-score” value did it give?
Its value is -0.0761.

With CGGCTAAA as the sequence, how does the “PBM E-score” value read?
The value was 0.0376.

GACGCGTC was tested. Which “PBM E-score” value did it give?
Its value is 0.26.

How did the “PBM E-score” value turn out when AAAAGGGA was run?
The value was 0.0498.

For GTATACCA, which “PBM E-score” value is on record?
The value was 0.0647.

Which “PBM E-score” value does the source give for AAACACTA here?
The value was 0.0508.

ACATTGCA was tested. Which “PBM E-score” value did it give?
Its value is -0.0715.

For ACGTTCTG, which “PBM E-score” value is on record?
Its value is -0.0683.

For AACGCCCG, which “PBM E-score” value is on record?
The value was 0.0165.

With CATGAAGC as the sequence, how does the “PBM E-score” value read?
The value was 0.0163.

CGGTTAGA was tested. Which “PBM E-score” value did it give?
Its value is -0.123.

How did the “PBM E-score” value turn out when CCCCGAGG was run?
The value was -0.0357.

How did the “PBM E-score” value turn out when AAACTTGT was run?
The value was 0.0404.

With CGATCTCA as the sequence, how does the “PBM E-score” value read?
The value was -0.181.

GGGCCGAA was tested. Which “PBM E-score” value did it give?
Its value is -0.206.

How did the “PBM E-score” value turn out when CTAGAACC was run?
The value was 0.121.

ATCCGCAT was tested. Which “PBM E-score” value did it give?
Its value is 0.155.

Which “PBM E-score” value does the source give for GCGAGGAA here?
The value was 0.0756.

How did the “PBM E-score” value turn out when GGCTCCAC was run?
Its value is 0.248.

Which “PBM E-score” value does the source give for AGTCAAGG here?
Its value is -0.125.

Which “PBM E-score” value does the source give for ACACTTAC here?
Its value is -0.192.

GCTCGAAC was tested. Which “PBM E-score” value did it give?
The value was -0.292.

With GATGGTCC as the sequence, how does the “PBM E-score” value read?
The value was -0.0114.

With ACGCAATA as the sequence, how does the “PBM E-score” value read?
The value was 0.188.

Which “PBM E-score” value does the source give for TATGTTGA here?
Its value is -0.114.

CCAGGACA was tested. Which “PBM E-score” value did it give?
The value was -0.0866.

GACGTCCA was tested. Which “PBM E-score” value did it give?
Its value is 0.0839.

How did the “PBM E-score” value turn out when GTCCAAAC was run?
The value was 0.16.

For ACTCACAC, which “PBM E-score” value is on record?
The value was -0.0542.

Which “PBM E-score” value does the source give for AACAGAGG here?
Its value is 0.118.

Which “PBM E-score” value does the source give for CCGTCCGC here?
Its value is -0.171.

With GATGAGAA as the sequence, how does the “PBM E-score” value read?
Its value is -0.138.

How did the “PBM E-score” value turn out when CAGGGTGC was run?
The value was 0.234.

How did the “PBM E-score” value turn out when AAGCAACA was run?
The value was -0.0142.

How did the “PBM E-score” value turn out when AGTTCGCG was run?
Its value is 0.0674.

Which “PBM E-score” value does the source give for ATAAAGCG here?
The value was 0.0542.

Which “PBM E-score” value does the source give for CGTACGTC here?
Its value is -0.277.

For AAATAGAC, which “PBM E-score” value is on record?
Its value is 0.23.

AGAGGTTG was tested. Which “PBM E-score” value did it give?
Its value is 0.113.

With GTACCATA as the sequence, how does the “PBM E-score” value read?
Its value is 0.0685.

For GGGGAGGA, which “PBM E-score” value is on record?
The value was -0.151.

With AATCGGAA as the sequence, how does the “PBM E-score” value read?
The value was 0.16.

With AAAACCGT as the sequence, how does the “PBM E-score” value read?
The value was 0.0768.

How did the “PBM E-score” value turn out when GCAGGGAA was run?
Its value is -0.0427.
